# Measured values as given in the RNAGym collection of RNA variant scans (doi:10.7554/elife.90254).
# The source gives no read counts; variants with many changes may rest on few reads.
# B1: LINE1-full (parent)
# chain: UACGUAGGUGGUUUUCCCCUGAUAGUGCUAAGGGGGCCUGGAAGUUUGGACUGGGCAGAGCUCAACACAGCGUGGCAAAGUGGCUGUGGCUAGACUGCCUCUCUGGAUUCCUCGUCACUCAGCAGGGCAUCUCUGAGAGAAAUGCC
# Variants of: B1
# Assay: self-cleavage, relative activity (ratio to wild type); higher = more cleavage; in vitro, sequencing; the parent is a self-cleaving ribozyme
row,Variant,self-cleavage
1,C19U G34A U96C,0.14
2,U29A A57U A79G A129U,0.12
3,G7C U9A U96C U102C,0.42
4,U1G C101A U132C,0.84
5,C37U U112C A117G U119A A136G A142C,0
6,G75A A78G A107G U119C,0.49
7,U62C U108C C145U,0.05
8,G33U A121U A124U,0.89
9,U12G C110A U132C,0.96
10,U9C A57U A79G A92G U102A A140G,0
11,A2G U23C C37U U108C,0.93
12,G53U C56U G125A,0.18
13,U13A U14C A67U U85C U132C U134A,0
14,C113U A117C A140G A142G,1.78
15,U14C U47C A121C,0.77
16,A6G A43G U52A U62C A140G,0.25
17,A30G U39C G93A U115A,0.07
18,C17A A43U U108C A140G,1.11
19,U9A A67U C103A,0.1
20,U5C G53U A79G U112A A136G,0.48
21,U1C U46C A138G U143C,1.8
22,U62C U96A C113A,0.03
23,U26C A30G A69U U73C,0
24,G11A U91A A138G,0.62

row,Variant,self-cleavage
1,A78G U96C U102C G105A A124G,0
2,C28U U81C U102A,1.53
3,G4A U15C A43G A64U U73A U87A U102C,0.07
4,U1C U5C U20A A129G A138C A141U,0
5,U9C C19U U96C,0
6,G4U U26C A107G,1.84
7,G8A G135A A138G,1.67
8,U20C A42G C61U U119A A124U,0.02
9,A6G U73C U87C,2.51
10,A43G U52A A59G A141G,0.03
11,U15C A42G A121U A138G,1.78
12,U5A C18A U26G A69G,1.16
13,A30G C76A U85C,1.14
14,A22U U115C U130A,1.76
15,G7A G49U A69G G86A U104A,0.01
16,U15C G54A A67G U91C,0.2
17,C3G U39A U109C U112C,1.05
18,U9A U39C U62C A140G,0.09
19,G33C U39C U73C A140G,0
20,A65G G86A A138G,0.03
21,G7U G10C A64G U85G A117G,0
22,U39C A136G U143A,0.43
23,A77G U85C U132C,0
24,G32C A57G A77U A94G U130C A138G,0

row,Variant,self-cleavage
1,U1C U52C U62C,0
2,G36A G135A A141G,1.25
3,U1A U45C U62C U73C U81A G105A U134G A141U,0
4,U12C U47A G54A U81A,0.56
5,U26C A78G C113U,1.47
6,U39A G55C A67G,0.06
7,G54A A77G A140G,0.77
8,U62C A79G U96A U102C,0.08
9,U52C C68U U104A A141G,0.11
10,G54U U87A U100C,0.08
11,A24G U47G A117U U119C,1.02
12,U9C G35A U132C,1.06
13,U14C G25A U132C,1.21
14,U39A U46C A107G A140G A141G A142G,1.53
15,U5C U15A U73A U104A,0.7
16,U12C A117G U119A,1.22
17,A24G A77G A79G,1.62
18,U15A U29A U45A A140G,0.78
19,A30G A94G A117G,1.02
20,A22G U46G G89A,0.13
21,U13C A22G A129G,0
22,G40A A69G C120U,0.6
23,U13C A30G A79G U96C U132A,0
24,G7A U96C G97U,0.08

row,Variant,self-cleavage
1,A2G U14C U52A U87G,0.85
2,A22G U108C U134C A140G,1.08
3,A65G A121U A136G,0.05
4,U14C A43G A92G,0.48
5,G7A U130C A142G,0
6,U1C G86A C110U U119C U143A,0.1
7,C18U C28A A78G U112C,1.14
8,A50G C76U A138U,1.55
9,A50G A59U U132A,0.6
10,U47C U62A G88C,0
11,U5A G21A A107G,0.71
12,U47G U115C A124G,0.38
13,A6U U39A A59G A77G C103U A129G,0
14,U1C A6G U13C A30U U39A A92G U100C,0
15,A50G U73C A140G,2.02
16,G7U A64G U87C,0
17,U9A U91C U96C,0.29
18,A31G A42U U109A U115A A140U,1.21
19,U14C U45C U73A,2.63
20,U15C A42G U102C,1.02
21,A59G A129G U134C,0.1
22,A30G A43U A50G,0.63
23,U108C U119C U132C,2.76
24,G36U U91C U100A U108C A121U A142G,0.05

row,Variant,self-cleavage
1,G34C A65G U85A,0
2,G25U A78G A94G,0.2
3,G80A U91C U134C,1.15
4,U15C U62C C71U,0
5,A22U U45A U112C A141G,1.59
6,G86A U100A U104C A124G U132C,0.03
7,A24U C37U C84U,0.05
8,A69U U112C G125U,0.05
9,U14C U39C A77G A129U,1.44
10,U9A G125A A142G,1.4
11,C68U A107G U115C,0.04
12,C18U A43G U46C U73A,0.79
13,U39A C116U A117G,1.58
14,U13C A59G U85C U108C,0
15,U85C A92U A124G A142G,0
16,U14C U45A C51U C71U,0.74
17,A6G U45C U143G,0.61
18,U91A A92G A124U A129G,0.08
19,U52C A65U U85A,0.06
20,U1C A117G U143C,2.87
21,U15C U26A U47C,0.29
22,U104C C116U A142G,1.65
23,A2G U15A A140G,0.8
24,G97A G126U A129G A136G,0.35

row,Variant,self-cleavage
1,U5C A64G C113U,0.44
2,U9C U39C U46A U119C G135U,1.28
3,A22U A142G U143C,1.27
4,U12A U15C A65G,0.14
5,U1A A42G A57G,0.38
6,U12G C18U U91C,0
7,G11U U91A U100C A140G,0.48
8,A6G U26A A79G A121G,0
9,A2G U91A U96C,0.5
10,U45C A50G U52A A69G U85C G97A A129U,0
11,C63A A65G U73A,0.01
12,U62C A94G U104A G125A U134A A136G,0.03
13,U12C A43G G53A C71U A78G,0.17
14,C51U U85C A117U U130C,0.26
15,U47C G49C A121U,1.38
16,U14C G36A U143C,1.3
17,U12C U96C A141G,0
18,A43U U47G A124G,0.49
19,U20A U26A A124G,1.14
20,U9G U14C U15C C98U,1.18
21,U52C C56U A92G,0.03
22,G83A U85A A129G,0.06
23,U73C U85A C131U U134C A140U,0.13
24,U26A A30G A57C G70A A107G U109A A142G,0.3

row,Variant,self-cleavage
1,U15A U73A C131A,1.24
2,G55C A79G G126U,0.11
3,G49A U62C U119C,0.06
4,U1C U26C U73A G122U,1.18
5,C66U U104A U119C,0.05
6,A69G A78U A141U,0.9
7,U12G A57G C84G A124G A129U C133A,0
8,A57G A64U A69G,0.1
9,A77G U100A U134C,1.48
10,A6G A31U C71U A138U,1.09
11,A6U G41U U108C,1.39
12,A31U A79G U115A A141G,1.04
13,A67U U109A A141G,0.11
14,U9A U12G U39C U45C A59G A67U G83A,0.52
15,C17U G49A U81A U132C,1.25
16,U1C A57U U73C,0.12
17,U15A G25A U52A U73A A142G,1.15
18,U5A U20C C113U A141C,0.82
19,U15C U47G A129G,1.75
20,U45C U47A U112C,0
21,U73A U100C C113U,2.14
22,U26C U87A C99U,0.06
23,U14C A136G G137U U143C,0.93
